Test results reported in PubChem BioAssay AID488969 (Vanderbilt High Throughput Screening Facility, 2010).
In all, about 110,000 compounds were measured (“z-score”: median about -0.1, highest 2% from about 2 on). The list shows a part of the results. The source made the active and inactive calls.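 Rule for the calls: active = z-score in the third read window above 3 or below -3; inactive = the rest.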

Molecular target: Metabotropic glutamate receptor 8 (Rattus norvegicus) (UniProt P70579)
Test: rat mGluR8 modulators via GIRK flux, primary screen, cell-based, thallium flux, HTS (AID 488969)
Conditions: HEK293 rat mGluR8, GIRK (G protein-gated inwardly rectifying potassium channel) thallium flux, FluoZin2; at 10 µM; stronger effect = higher value; submaximal glutamate (EC20) added with thallium

Sequence of UniProt P70579 (P70579 whole entry, looked up): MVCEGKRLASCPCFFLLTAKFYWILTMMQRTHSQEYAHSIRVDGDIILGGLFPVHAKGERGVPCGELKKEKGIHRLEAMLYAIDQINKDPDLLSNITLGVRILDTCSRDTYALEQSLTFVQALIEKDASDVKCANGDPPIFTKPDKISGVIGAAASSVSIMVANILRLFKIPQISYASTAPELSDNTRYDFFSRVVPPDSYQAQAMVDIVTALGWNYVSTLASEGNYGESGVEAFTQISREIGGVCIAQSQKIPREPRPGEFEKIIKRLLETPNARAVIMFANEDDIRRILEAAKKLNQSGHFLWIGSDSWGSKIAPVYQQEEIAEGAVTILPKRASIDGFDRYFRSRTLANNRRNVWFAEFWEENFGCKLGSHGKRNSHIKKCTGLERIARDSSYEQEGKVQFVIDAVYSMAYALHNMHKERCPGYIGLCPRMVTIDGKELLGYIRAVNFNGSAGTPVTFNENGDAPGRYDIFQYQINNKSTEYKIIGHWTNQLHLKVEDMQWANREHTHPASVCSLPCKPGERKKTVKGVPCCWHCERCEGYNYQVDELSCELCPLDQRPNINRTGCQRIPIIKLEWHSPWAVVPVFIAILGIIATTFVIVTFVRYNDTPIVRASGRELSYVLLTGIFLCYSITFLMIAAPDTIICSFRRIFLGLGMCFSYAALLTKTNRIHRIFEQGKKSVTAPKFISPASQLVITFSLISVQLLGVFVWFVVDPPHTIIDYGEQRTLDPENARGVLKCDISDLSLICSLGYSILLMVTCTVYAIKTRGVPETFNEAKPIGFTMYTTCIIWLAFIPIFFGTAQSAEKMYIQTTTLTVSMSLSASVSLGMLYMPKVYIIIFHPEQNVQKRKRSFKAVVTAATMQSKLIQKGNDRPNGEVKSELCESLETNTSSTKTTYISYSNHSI

Structure (SMILES) | z-score
CC(C)Cn1c(/C=N/Nc2nc3ccccc3[nH]2)nc2ccccc21 | 0.188
CN(CC(=O)N1CC(=O)N(CCc2ccccc2)C(=O)C1)S(=O)(=O)c1cccc2nsnc12 | 0.446
CCOc1ccccc1OCCCC(=O)NC1=NCCS1 | -0.897
CC(=O)N(Cc1c(C)nn(-c2ccccc2)c1Cl)c1ccc(Cl)cc1 | -0.615
CCOc1cccc2cc(C(N)=O)c(=NCc3ccccc3)oc12 | -0.427
O=C(O)CCC(=O)Nc1ccc(Sc2ccc([N+](=O)[O-])cc2)cc1 | -0.142
O=C(CCN1C(=O)COc2ccccc21)NCc1cccnc1 | 0.317
O=C(NC1CCCCCC1)C1c2ccccc2C(=O)N1Cc1ccco1 (configuration not stated) | -0.0522
COCCCn1c(C)csc1=Nc1cccnc1 | 0.069
CCOc1cc(N2CCOCC2)c(OCC)cc1NC(=O)CN1C(=O)NC2(CCc3ccccc32)C1=O (configuration not stated) | 0.674
Cc1cc(OCCCCCNCCO)ccc1Cl | 1.03
CCOC(=O)C1CCCN(c2c(N3CCN(C4CCCCC4)CC3)c(=O)c2=O)C1 (configuration not stated) | 0.872
COc1ccc(-n2ncc3c(N4CCC(C(N)=O)CC4)ncnc32)cc1 | 1.62
O=C(Cc1ccc(Br)cc1)OCC(=O)N1CCc2ccccc2C1 | -0.569
CCOC(=O)c1cc(CC)sc1NC(=O)CCC(=O)O | -0.491
CC(C)COn1c(=S)[nH]c2ccccc2c1=O | active: 3.03
CN(C)C(=O)CSc1nc2ccccc2n1CC(=O)N1CCN(c2ccccc2)CC1 | 0.101
CCOC(=O)C(C)Sc1ncc(OC)c(Sc2ccc(Cl)cc2)n1 (configuration not stated) | -0.0286
Cc1c(NC(=O)/C(C#N)=C\c2cccs2)c(=O)n(-c2ccccc2)n1C | -0.0522
COc1ccc2cc(C(c3nnnn3C(C)(C)C)N3CCc4ccccc4C3)c(=O)[nH]c2c1 (configuration not stated) | 1.25
O=C(CCc1ccccc1)NNC(=S)NC(=O)c1ccccc1 | 1.13
CC(=O)c1nc(N2C(=O)CC(Cc3cccc(C)c3)C2=O)sc1C (configuration not stated) | -0.395
O=C(Cn1cnc2c(nnn2-c2ccccc2)c1=O)N1CCOCC1 | 0.0621
COc1ccc(Nc2oc(-c3ccco3)nc2S(=O)(=O)c2ccc(F)cc2)cc1 | 0.285

Structure (SMILES) | z-score
CCC(NC(=O)c1ccccc1O)c1ccccc1 (configuration not stated) | 0.132
CCOC(=O)C1=C(c2ccccc2)NC(SC)=C(C#N)C1c1ccco1 (configuration not stated) | -2.51
Cn1c(SCC(=O)C(C)(C)C)nnc1-c1ccncc1 | -0.217
COc1ccc2nc3oc(C(=O)NC4CCN(Cc5ccccc5)CC4)cc3cc2c1 | 1.26
CC(C)(C)NC(=O)COC(=O)c1ccc(O)cc1 | -0.866
CC1CCCCN1C(=O)c1cc2nc(-c3ccccc3)cc(-c3ccccc3)n2n1 (configuration not stated) | -0.18
CCOc1cc(/C=C(\C#N)C(=O)NCC2CCCO2)ccc1O (configuration not stated) | 0.286
Cc1cc2c(s1)CCCCC(=O)N2 | 0.0516
CCN(CC)C(=O)C1CCCN(C(=O)Nc2ccccc2)C1 (configuration not stated) | -0.241
CCOC(=O)/C=C/C(=O)Nc1ccc(S(=O)(=O)Nc2c(C)cc(C)cc2C)cc1 | -0.16
CCOC(=O)N(C)c1ccc(C(O)(C(F)(F)F)C(F)(F)F)cc1 | 0.389
Cc1c(N/C(=N/S(=O)(=O)c2ccccc2)c2ccc(Cl)cc2)c(=O)n(-c2ccccc2)n1C | -0.38
CCOC(=O)c1ccc(NC(=O)CC2Sc3ncnn3C2=O)cc1 (configuration not stated) | -0.0772
CCC(C)NC(=O)Cn1cnc2sc(C)cc2c1=O (configuration not stated) | -0.214
COCCNC(=O)CCc1nc(-c2ccccc2)no1 | -0.141
COc1ccccc1N1CCN(C(=O)c2cccc3c(=O)c(C)c(-c4ccccc4)oc23)CC1 | -0.287
COc1ccc(-c2c(C#N)c(N)nc3c2CCCC3)cc1OC | 0.0196
CCCNC(=O)C(=O)NCCC1=CCCCC1 | -0.0122
CCCCC(O)(CCCC)C(=O)NN(C(=O)OC)c1ccccc1 | -0.311
OC(COc1ccc2cc(Br)ccc2c1)CN1CCN(c2ccccn2)CC1 (configuration not stated) | -0.00684
CCN(CC)CCNS(=O)(=O)c1ccc(Cl)cc1 | -0.355
Cc1cc(C)nc(N2CCCC(C(=O)NCc3cccs3)C2)n1 (configuration not stated) | -0.0389
OC1(c2ccccc2F)CCN(Cc2nnnn2CCc2ccccc2)CC1 | -0.368
O=C(CN1CCc2ccccc21)NCc1ccc2c(c1)OCO2 | -0.334

Structure (SMILES) | z-score
Cc1cccc(C)c1OCC(=O)Nc1ccc(S(=O)(=O)Nc2ccccn2)cc1 | -0.0977
COc1ccc(Br)cc1CNC(=O)C1CCCN(S(C)(=O)=O)C1 (configuration not stated) | 0.214
CC(C)(C=O)C1=CC(=O)c2ccccc2C1=O | -0.0423
CCOc1ccc(OCC)c(NC(=O)C2COc3ccccc3O2)c1 (configuration not stated) | -0.38
O=C(NCCc1nc2ccccc2[nH]1)/C(=C/c1ccco1)NC(=O)c1ccc(Br)o1 | -0.559
COCCn1nnnc1C(c1cccc(C(F)(F)F)c1)N1CCN(Cc2ccccc2)CC1 (configuration not stated) | -0.165
O=C(/C=C/c1ccc(F)cc1)c1ccccc1Br | -0.272
Cc1cc(C)c(C)c(OCC(=O)NCC2CCCO2)c1 (configuration not stated) | 0.245
OC(CSc1ccccc1Cl)CN1CCN(c2ccc(F)cc2)CC1 (configuration not stated) | -0.618
Cc1cc(NS(=O)(=O)c2ccc(NC(=O)c3cc4ccccc4o3)cc2)no1 | 0.0455
O=C(c1ccc(-c2cccc(Cl)c2)o1)N1CCN(c2ccc([N+](=O)[O-])cc2)CC1 | -0.33
Cn1c(=O)[nH]c(=O)c2c1nc(Br)n2Cc1ccccc1F | -0.243
CN(C)C(=O)c1ccc(COc2ccccc2Br)o1 | -0.279
CCN=c1scc(C)n1/N=C/c1ccsc1 | -0.0195
Cc1cc(-c2csc(NC(=O)c3ccc(C#N)cc3)n2)c(C)n1Cc1ccccc1 | -0.163
COCc1cc(C)nc(SCC(=O)Nc2ccc3c(c2)OCO3)c1C#N | -0.211
CCOC(=O)N1CCC(NC(=O)C2CCN(c3nc(-c4ccc(OC)cc4)no3)CC2)CC1 | -0.18
Cc1ccc2nc(SCC(=O)O)nc(C)c2c1 | -0.0733
Nn1c(SCC(=O)NC2CCCc3ccccc32)nnc1-c1cccs1 (configuration not stated) | -0.896
Cc1cc(C)nc(N2CCCC(C(=O)NCc3ccccc3)C2)n1 (configuration not stated) | -1.14
Cc1ccc2oc3nc(C)c(C(=O)O)cc3c(=O)c2c1 | -0.396
COC(=O)c1onc(C(=O)c2ccccc2)c1C(=O)OC | active: -3.65
CCN(CC)c1ccc(NC(=O)c2nc3nc(C)cc(C(F)F)n3n2)cc1 | active: 3.02
COc1ccc(CCNc2nc(N3CCCCC3)nc(N3CCCCC3)n2)cc1OC | -0.179
